From US20100227313A1, “Methods and Compositions for Determining Altered Susceptibility of HIV-1 to Protease Inhibitor Treatment” (priority 2007, published 2010)
The source gives many values for each of these; only a part stands here.

Tested on: HIV-1
Assay: Resistance test vector (PHENOSENSE) phenotypic susceptibility assay, fold change in IC50, correlated with genotype (Fisher's Exact test, odds ratio)
Type: cell-based, human immunodeficiency virus type 1
Excerpt: See Petropoulos et al., 2000, Antimicrob. Agents Chemother. 44:920-928; U.S. Pat. Nos. 5,837,464 and 6,242,187. PHENOSENSE™ is a phenotypic assay that achieves the benefits of phenotypic testing and overcomes the drawbacks of previous assays.
PHENOSENSE™ can obtain results with only one round of viral replication, thereby avoiding selection of subpopulations of virus that can occur during preparation of viral stocks required for assays that rely on fully infectious virus.
A resistance test vector (“RTV”) can then be constructed by incorporating the amplified viral gene sequences into a replication defective viral vector by using any method known in the art of incorporating gene sequences into a vector. In one embodiment, restrictions enzymes and conventional cloning methods are used. See Sambrook et al., 2001, Molecular Cloning: A Laboratory Manual, Cold Spring Harbor Laboratory, 3rd ed., NY; and Ausubel et al., 1989, Current Protocols in Molecular Biology, Greene Publishing Associates and Wiley Interscience, NY. In a preferred embodiment, ApaI and PinAI restriction enzymes are used. Preferably, the replication defective viral vector is the indicator gene viral vector (“IGVV”). In a preferred embodiment, the viral vector contains a means for detecting replication of the RTV. Preferably, the viral vector contains a luciferase expression cassette.
The assay can be performed by first co-transfecting host cells with RTV DNA and a plasmid that expresses the envelope proteins of another retrovirus, for example, amphotropic murine leukemia virus (MLV). Following transfection, viral particles can be harvested from the cell culture and used to infect fresh target cells in the presence of varying amounts of anti-viral drug(s). The completion of a single round of viral replication in the fresh target cells can be detected by the means for detecting replication contained in the vector. In a preferred embodiment, the completion of a single round of viral replication results in the production of luciferase. By monitoring the amount of, e.g., luciferase activity in the presence of the varying amounts of antiviral drug(s), a resistance curve can be constructed by plotting luciferase activity versus drug concentration. The susceptibility of an HIV, or population of HIV, can be determined by measuring the concentration of antiviral drug at which the luciferase activity detected is half-maximal. This number, the IC50, provides a standard and convenient measure of drug resistance.
Patient derived segment(s) corresponding to the HIV protease and reverse transcriptase coding regions were amplified by the reverse transcription polymerase chain reaction method (RT PCR) using viral RNA isolated from viral particles present in the plasma or serum of HIV infected individuals as follows. Viral RNA was isolated from the plasma or serum using oligo-dT magnetic beads (Dynal Biotech, Oslo, Norway), followed by washing and elution of viral RNA. The RT PCR protocol was divided into two steps. A retroviral reverse transcriptase (e.g. Moloney MuLV reverse transcriptase (Roche Molecular Systems, Inc., Branchburg, N.J.; Invitrogen, Carlsbad, Calif.), or avian myeloblastosis virus (AMV) reverse transcriptase, (Boehringer Mannheim, Indianapolis, Ind.) was used to copy viral RNA into cDNA. The cDNA was then amplified using a thermostable DNA polymerase (e.g. Taq (Roche Molecular Systems, Inc., Branchburg, N.J.), Tth (Roche Molecular Systems, Inc., Branchburg, N.J.), PRIMEZYME™ (isolated from Thermus brockianus, Biometra, Gottingen, Germany)) or a combination of thermostable polymerases as described for the performance of “long PCR” (Barnes, W.M., 1994, Proc. Natl. Acad. Sci, USA 91, 2216 20) (e.g. Expand High Fidelity PCR System (Taq+Pwo), (Boehringer Mannheim. Indianapolis, Ind.); GENEAMP XL™ PCR kit (Tth+Vent), (Roche Molecular Systems, Inc., Branchburg, N.J.); or […] II®, Clontech, Palo Alto, Calif.)

## CC(C)CN(C[C@@H](O)[C@H](Cc1ccccc1)NC(=O)O[C@H]1CCOC1)S(=O)(=O)c1ccc(N)cc1 [APV, amprenavir]
Mutation A71T in PR, increased susceptibility (Table 3)
  Odds Ratio: 0.71
Mutation D30N in PR, increased susceptibility (Table 3)
  Odds Ratio: 0.16
Mutation D425E in gag, reduced susceptibility (FC>2)
  Odds Ratio: 1.59
Mutation F463L in gag, reduced susceptibility (FC>2)
  Odds Ratio: 1.57
Mutation H441Y in gag, increased susceptibility (Table 3)
  Odds Ratio: 0.67
Mutation I15V in PR, reduced susceptibility (FC>2)
  Odds Ratio: 1.60
Mutation I50L in PR, increased susceptibility (Table 3)
  Odds Ratio: 0.42
Mutation I64L in PR, increased susceptibility (Table 3)
  Odds Ratio: 0.58
Mutation I64V in PR, increased susceptibility (Table 3)
  Odds Ratio: 0.80
Mutation I93L in PR, increased susceptibility (Table 3)
  Odds Ratio: 0.89
Mutation K43R in PR, increased susceptibility (Table 3)
  Odds Ratio: 0.35
Mutation K45R in PR, increased susceptibility (Table 3)
  Odds Ratio: 0.32
Mutation L63A in PR, increased susceptibility (Table 3)
  Odds Ratio: 0.51
Mutation L63Q in PR, increased susceptibility (Table 3)
  Odds Ratio: 0.47
Mutation L63S in PR, increased susceptibility (Table 3)
  Odds Ratio: 0.53
Mutation L89V in PR, reduced susceptibility (FC>2)
  Odds Ratio: >>>
Mutation L486S in gag, increased susceptibility (Table 3)
  Odds Ratio: 0.48
Mutation N88D in PR, increased susceptibility (Table 3)
  Odds Ratio: 0.26
Mutation N88S in PR, increased susceptibility (Table 3)
  Odds Ratio: 0.07
Mutation P453L in gag, reduced susceptibility (FC>2)
  Odds Ratio: 1.58
Mutation S451N in gag, increased susceptibility (Table 3)
  Odds Ratio: 0.59
Mutation S498L in gag, increased susceptibility (Table 3)
  Odds Ratio: 0.53
Mutation S499L in gag, increased susceptibility (Table 3)
  Odds Ratio: 0.47
Mutation V77I in PR, increased susceptibility (Table 3)
  Odds Ratio: 0.60
